Where a chain is given by its changes, count along the chain named. In names and notes the source's numbering stands.

The target of assay [1] is T1, human ROR1 protein (ROR1-His; Sino Biological, Catalog #13968-H08H) (human, UniProt Q01973 partial chain).
T1 construct: extracellular domain; Bought protein; also called human recombinant ROR1 protein
The assay can be described thus: SACE ELISA on human ROR1-His; antibody stored 2 weeks at 4°C. Here is the method: (§1) As a control group, the BA6xB5 bispecific antibody which comprised the parental clone anti-ROR1 antibody BA6 without removed PTM hotspot, and for the experimental group, the BA6M11xB5 bispecific antibody was utilized, and after storing both samples at 4° C. (normal conditions) and 40° C. (stress conditions) for two weeks, the antibody-antigen binding affinity to human ROR1 and human B7H3 recombinant proteins was evaluated using an ELISA-based solution binding assay. Specifically, 96-well microtiter plates (Nunc-Immuno Plates, NUNC) were coated for 16 hours at 4° C. with 1 μg/ml concentration of human ROR1 protein (ROR1-His; Sino Biological, Catalog #13968-H08H) and human B7-H3 protein (B7H3-His; Sino Biological, Catalog #11188-H08H) in PBS solution, and then the plates were then blocked with 1% (v/v) BSA (bovine serum albumin) at 37° C. for 2 hours to prevent non-specific binding.
(§2) Afterwards, the BA6xB5 and BA6M11xB5 bispecific antibodies stored for two weeks were added to the microtiter plates at the concentrations listed in FIGS. 7a-7d, and their binding ability was analyzed by ELISA as follows. […] The enzymatic reaction was stopped with 0.5 mol/L sulfuric acid, and the absorbance was measured at 450 nm and 650 nm using a microplate reader (Molecular Devices).
(An ELISA detects its analyte on a solid surface through an enzyme-linked reagent.)

In assay [2] the target is T1, human ROR1 protein (ROR1-His; Sino …). The assay is described as follows: SACE ELISA on human ROR1-His; antibody stored 2 weeks at 40°C. Here is the method: as §1, §2
Assay [3] has as its target T2, human B7-H3 protein (B7H3-His; Sino Biological, Catalog #11188-H08H) (human, UniProt Q5ZPR3 29-461).
T2 construct: Bought protein
T2 sequence (looked up): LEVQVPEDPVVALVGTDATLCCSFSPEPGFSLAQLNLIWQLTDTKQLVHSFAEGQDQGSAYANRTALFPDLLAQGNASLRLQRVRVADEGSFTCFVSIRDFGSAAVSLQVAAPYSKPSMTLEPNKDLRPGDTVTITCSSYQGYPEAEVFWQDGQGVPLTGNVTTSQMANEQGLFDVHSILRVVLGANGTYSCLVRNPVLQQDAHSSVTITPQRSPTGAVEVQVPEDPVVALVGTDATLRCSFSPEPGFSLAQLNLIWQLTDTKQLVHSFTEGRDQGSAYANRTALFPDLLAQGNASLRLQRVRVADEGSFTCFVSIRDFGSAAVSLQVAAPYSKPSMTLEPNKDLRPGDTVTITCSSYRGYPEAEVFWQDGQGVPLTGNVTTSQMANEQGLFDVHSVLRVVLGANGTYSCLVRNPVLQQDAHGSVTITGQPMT
The assay is described as follows: SACE ELISA on human B7-H3-His; antibody stored 2 weeks at 40°C. Here is the method: as §1, §2

Assay [4] has as its target T2, human B7-H3 protein (B7H3-His; Sino …). The assay can be described thus: SACE ELISA on human B7-H3-His. On the procedure:
as §1, §2

In assay [5] the target is T1, human ROR1 protein (ROR1-His; Sino …). The assay can be described thus: SACE ELISA on human ROR1-His. On the procedure:
as §1, §2

Assay [6] concerns the target T2, human B7-H3 protein (B7H3-His; Sino …). The assay is described as follows: SACE ELISA on human B7-H3-His; antibody stored 2 weeks at 4°C. Here is the method:
as §1, §2

Assay [7] concerns the target T3, human ROR1 on cells (NCI-N87, CHOK1-hROR1, AGS, CHO-huROR1-huB7-H3) (human, UniProt Q01973 30-937).
T3 construct: whole, on cells; also called cell surface ROR1
The assay is described as follows: flow cytometry on CHO-huROR1-huB7-H3 cells, which show both human ROR1 and human B7-H3, so the value belongs to the binding to both targets together; FITC anti-human IgG, MFI over secondary antibody only. An excerpt: (§3) To evaluate the cell-binding ability of the anti-ROR1/B7-H3 bispecific antibody, cells expressing both ROR1 and B7-H3 were used to compare the cell-binding ability of the bispecific antibody with that of the monospecific antibodies.
(§4) As a cell line for the comparison of cell-binding ability, CHO-huROR1-huB7-H3 cell line (obtained by transfecting the ROR1-CHO recombinant cell line (BPS Bioscience) with the human B7-H3 gene (Origene) and selecting for the desired gene-inserted single cells using G418), which stably transfected the human ROR1 and human B7-H3 gene to artificially overexpress both human ROR1 and human B7-H3 proteins were used, and analysis was performed using a flow cytometer (LSRFortessa X-20, BD Biosciences). Specifically, after dissociating and washing the overexpressing cell line with PBS, the cell number was counted, and the cells were seeded at a density of 2×10⁵ cells per well into a V-bottom 96-well plate (96 Well Plate-RV, Bioneer, 910D09). Antibodies diluted 4-fold starting from 100 nM in 1% BSA solution were added at 100 μL per well to the centrifuged cells and incubated at 4° C. for 1 hour. […] After the reaction, the cells were washed twice with the same buffer, resuspended in 100 μL of PBS, and analyzed using a FACS instrument. A total of 10,000 cells were detected per measurement, and the data was analyzed using FlowJo software. […]
For orientation: A flow cytometer gives signals particle by particle.

In assay [8] the target is T4, human B7-H3 on CHO-huROR1-huB7-H3 cells (human, UniProt Q5ZPR3 29-534).
T4 construct: whole, on cells; also called cell surface B7-H3
T4 sequence (looked up): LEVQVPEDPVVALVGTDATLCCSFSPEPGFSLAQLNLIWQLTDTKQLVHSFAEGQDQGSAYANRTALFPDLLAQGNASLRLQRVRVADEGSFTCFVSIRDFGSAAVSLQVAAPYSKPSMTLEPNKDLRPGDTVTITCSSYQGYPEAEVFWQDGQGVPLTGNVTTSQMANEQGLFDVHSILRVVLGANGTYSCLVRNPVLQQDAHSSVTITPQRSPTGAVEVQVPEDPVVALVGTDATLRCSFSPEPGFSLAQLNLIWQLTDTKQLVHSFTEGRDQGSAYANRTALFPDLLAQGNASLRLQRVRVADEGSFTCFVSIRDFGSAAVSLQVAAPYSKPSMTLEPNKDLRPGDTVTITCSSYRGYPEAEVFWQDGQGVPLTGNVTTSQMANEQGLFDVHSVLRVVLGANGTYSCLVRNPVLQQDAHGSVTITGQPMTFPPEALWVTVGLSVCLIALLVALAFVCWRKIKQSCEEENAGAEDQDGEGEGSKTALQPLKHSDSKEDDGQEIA
The description is as above.
Source text: as §3, §4

Assay [9] concerns the target T1, human ROR1 protein (ROR1-His; Sino …). The assay can be described thus: ELISA, plate coated with ROR1-His (1 ug/ml), detection with HRP-conjugated anti-Fc polyclonal antibody, OD at 450 nm. On the procedure: The ligand binding affinity of the BA6M11 (V205C)-T-PBD monospecific antibody and BA6xB5 (M11) (V205C)-T-PBD bispecific antibody ADCs to human ROR1 recombinant protein was evaluated using an ELISA-based solution binding assay. Specifically, 96-well microtiter plates (Nunc-Immuno Plates, NUNC) were coated for 16 hours at 4° C. with ROR1 protein (ROR1-His; Sino Biological, Catalog #13968-H08H) at a concentration of 1 μg/ml in PBS solution and blocked with 1% (v/v) BSA (bovine serum albumin) at 37° C. for 2 hours to prevent non-specific binding.
Afterwards, the BA6M11 (V205C)-T-PBD monospecific antibody and BA6xB5 (M11) (V205C)-T-PBD bispecific antibody were added to the microtiter plates at the concentrations listed in FIG. 12, and their binding ability was analyzed by ELISA as follows: After incubating at 37° C. for 2 hours, the plates were washed five times with PBS containing 0.05% (v/v) Tween 20, then HRP-conjugated Fc polyclonal antibody reagent (Pierce, Catalog #31413) diluted at a 1:30,000 ratio in 1% (v/v) BSA was added to the washed microtiter plates, incubated for 1 hour at 37° C. to allow the reaction, and used to detect the bound bispecific antibodies. […] The enzymatic reaction was stopped with 0.5 mol/L sulfuric acid, and the absorbance was measured at 450 nm and 650 nm using a microplate reader (Molecular Devices).

B1: BA6xB5 bispecific antibody (control with parental BA6 clone) (bispecific antibody)
heavy: EVQLLESGGGLVQPGGSLRLSCAASGFTFSNYDMSWVRQAPGKGLEWVSAIYHSGSSKYYADSVKGRFTISRDNSKNTLYLQMNSLRAEDTAVYYCARGGNGAWDTGFDYWGQGTLVTVSS[human IgG1 constant region not shown]GGGGSGGGGSGGGGSQSVLTQPPSASGTPGQRVTISCSGSSSNIGSNAVSWYQQLPGTAPKLLIYYNSHRPSGVPDRFSGSKSGTSASLAISGLRSEDEADYYCGSWDASLNAYVFGCGTKLTVLGGGGSGGGGSGGGGSGGGGSEVQLLESGGGLVQPGGSLRLSCAASGFTFSDYAMSWVRQAPGKCLEWVSSISSGSGSIYYADSVKGRFTISRDNSKNTLYLQMNSLRAEDTAVYYCAKNLIPLDYWGQGTLVTVSS
light: QSVLTQPPSASGTPGQRVTISCSGSSSNIGSNDVSWYQQLPGTAPKLLIYYDNNRPSGVPDRFSGSKSGTSASLAISGLRSEDEADYYCGAWDDSLSGYVFGGGTKLTVLGQPKAAPSVTLFPPSSEELQANKATLVCLISDFYPGAVTVAWKADSSPVKAGVETTTPSKQSNNKYAASSYLSLTPEQWKSHRSYSCQVTHEGSTVEKTVAPAECS
notes: only the BA6 variable domains are tied to it by the clone name; also called BA6 × B5
For the molecule B1, the EC50 (usually the concentration giving half of the maximal effect) in assay [1] is 0.141 nM; in assay [2] it was 0.18 nM; in [3] it was 0.186 nM; in assay [6], 0.173 nM. Also, the “Ratio(EC50), 4°C sample against 40°C sample” value was 93% in assay [4] and 78% in [5].

B2: BA6M11xB5 anti-ROR1/anti-B7-H3 bispecific antibody (bispecific antibody, human IgG1, lambda)
heavy: B1 heavy with N101S
light: B1 light with D52E
notes: also called BA6M11 × B5; BA6M11(WT)xB5
As to B2, the 50% effective concentration (EC50) in [1] stood at 0.152 nM; in [2], 0.134 nM; in assay [3], 0.19 nM. The entries for the “Ratio(EC50), 4°C sample against 40°C sample” value in assay [4] and in assay [5] were 122% and 113%, respectively. For the same molecule, the “EC50 (read off the curve)” value in assay [7] and in assay [8] was approximately 5 nM in each case.

B3: BA6(M11/V205C)xB5-T-PBD bispecific antibody ADC (bispecific antibody)
heavy: B1 heavy with N101S
light: B1 light with D52E, V206C
modifications: chain 2 pos 206 (Kabat V205C): Cys carrying the pyrrolobenzodiazepine (PBD) drug-linker through a thiosuccinimide, written C; DAR 2 (one drug on each light chain)
notes: Antibody-drug conjugate of BA6M11xB5; also called BA6xB5 (M11) (V205C)-T-PBD; BA6(M11/V205C)xB5-PBD (DAR2)
For the molecule B3, in [9], the EC50 (read off the curve) (in general, the concentration that produces a half-maximal response) was approximately 0.2 nM.

Source of the values: patent US20260015418A1 (ABL BIO, published 2026).
